The supplement of paper PMC10126150
Values marked as one replicate rest on one cluster of the flow cell; about a third of the high ones do not repeat.

Test system: ATP
Test: switch fluorescence ratio, 500 uM ATP over buffer (Cy3 cluster intensity, sum of 5 cycles each) (fold (ratio)); higher = stronger signal-on switching upon ATP binding; sequences stand for … in TCGTCGGCAGCGTCAGATGTGTATAAGAGACAGTTTTTTTTTTTTTTTTTTTTTTTTT…TC
Details: aptamer strand: ATP DNA aptamer (quencher-CACCTGGGGGAGTATTGCGGAGGAAGG + anchor), 100 nM annealed; ATP concentration: 500 uM; one replicate
Method in brief: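 The quencher-labelled ATP aptamer, at 100 nM, was annealed to Cy3-labelled switching-strand clusters on a modified Illumina MiSeq flow-cell. The clusters were imaged in selection buffer, then after 15 min with 500 uM ATP at 22 °C, and this buffer/ATP cycle ran five times with NaOH stripping and re-annealing between runs. Per-cluster fluorescence ratios, summed target-cycle over summed buffer-cycle Cy3 intensity, were averaged per switch-domain sequence. Clusters outside 100-1000 RFU were excluded.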
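Further: ATP exposure 15 min at 22 °C before imaging.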

Sequence	switch fluorescence ratio
ATCATAGGGC	1.24
ATCATATTCA	0.952
ATCATATTTC	1.02
ATCATCCCGG	1.04
ATCATGGTAT	0.98
ATCATTAGTT	0.968
ATCATTATCC	0.988
ATCATTATTC	0.956
ATCATTTGG	1.01
ATCATTTTCC	1.08
ATCCAAAGA	1.04
ATCCAAGGGC	1.06
ATCCAATTTC	0.997
ATCCACCCCT	1.11
ATCCACGAG	1.04
ATCCACGATC	1.25
ATCCACTTAA	1.07
ATCCAGACCG	1.02
ATCCCAGCCA	1
ATCCCATCAC	1.1
ATCCCATCTA	0.997
ATCCCCAATA	1.3
ATCCCCCTTC	1.07
ATCCCCGTAT	1.08
ATCCGAACCC	1.11

Sequence	switch fluorescence ratio
ATCCGACGGG	1.12
ATCCGAGGCC	1.06
ATCCGCACTT	2.95
ATCCGCGCCA	1.76
ATCCGTCCCG	1.02
ATCCGTTGAA	1.04
ATCCTAAAAT	1.01
ATCCTGGCGG	0.985
ATCCTTGTAA	1.05
ATCCTTTTAT	0.963
ATCGAAGTTT	0.963
ATCGATAACG	0.978
ATCGATAAGC	0.973
ATCGATATAA	0.98
ATCGCAAGCG	1.12
ATCGCACTTG	1.1
ATCGCGCATT	1.15
ATCGCTGGT	0.989
ATCGGAGCAA	3.78
ATCGGAGCAC	2.39
ATCGGATCAT	0.938
ATCGGGAT	1.03
ATCGGGCCC	0.987
ATCGGGTGGA	0.965
ATCGGTAAAA	1

Sequence	switch fluorescence ratio
ATCGGTACCC	1.02
ATCGTAGAGT	0.965
ATCGTATTAG	0.964
ATCGTCGTCA	0.967
ATCGTGATAA	0.998
ATCGTTAGGT	0.994
ATCGTTTGGC	0.954
ATCGTTTGGG	0.947
ATCTAAGATT	1.03
ATCTAAGGGT	0.97
ATCTACACGG	1.04
ATCTACAGCG	1.03
ATCTACATGT	1.01
ATCTAGCCGG	1.02
ATCTAGGAGA	1.03
ATCTAGGGGC	1.07
ATCTAGTTGC	1.04
ATCTATGGGA	0.962
ATCTCATTGT	0.967
ATCTCCGTA	1.1
ATCTCTAGAT	0.994
ATCTCTCAAA	1.02
ATCTCTCCTC	1.09
ATCTGAAGGG	0.958
ATCTGACCGT	1.02

Sequence	switch fluorescence ratio
ATCTGCGGGT	0.958
ATCTGCGTTA	1.02
ATCTGGCCCC	1.02
ATCTGGGAAC	1.01
ATCTGGTTGC	1.04
ATCTGTACTG	0.941
ATCTGTAGGC	1.03
ATCTGTCCAC	0.987
ATCTGTTGGT	1.02
ATCTTGTGGA	0.965
ATCTTTATGC	1.33
ATCTTTCACC	1.04
ATCTTTGCGC	1
ATGAAACTTG	1.04
ATGAAAGTGG	0.955
ATGAAATAAG	1.02
ATGAAGCGTT	0.985
ATGAAGTATA	0.983
ATGAAGTCAT	1.02
ATGAATCTAT	0.952
ATGACAGAGT	1
ATGACCCCGC	1.28
ATGACCTTAA	1.05
ATGACGTATG	0.992
ATGACGTCTG	0.962
